The target in the experiment is Purified recombinant Drp1 (isoform 1) (human), O00429. Briefly: pull-down; cell-free system, recombinant GST- or His-fusions purified from E. coli; two proteins only (CLUH with MiD49 or Mff without Drp1; CLUH with Drp1 as bait); both purified. To be noted: remark: other sources report otherwise.

One molecule from PMC8948191 can be followed below.

These are yes or no findings as the source states them, for the method shown.

B1: Purified recombinant CLUH, O75153 1-1309 (protein)
chain: MLLNGDCPESLKKEAAAAEPPRENGLDEAGPGDETTGQEVIVIQDTGFSVKILAPGIEPFSLQVSPQEMVQEIHQVLMDREDTCHRTCFSLHLDGNVLDHFSELRSVEGLQEGSVLRVVEEPYTVREARIHVRHVRDLLKSLDPSDAFNGVDCNSLSFLSVFTDGDLGDSGKRKKGLEMDPIDCTPPEYILPGSRERPLCPLQPQNRDWKPLQCLKVLTMSGWNPPPGNRKMHGDLMYLFVITAEDRQVSITASTRGFYLNQSTAYHFNPKPASPRFLSHSLVELLNQISPTFKKNFAVLQKKRVQRHPFERIATPFQVYSWTAPQAEHAMDCVRAEDAYTSRLGYEEHIPGQTRDWNEELQTTRELPRKNLPERLLRERAIFKVHSDFTAAATRGAMAVIDGNVMAINPSEETKMQMFIWNNIFFSLGFDVRDHYKDFGGDVAAYVAPTNDLNGVRTYNAVDVEGLYTLGTVVVDYRGYRVTAQSIIPGILERDQEQSVIYGSIDFGKTVVSHPRYLELLERTSRPLKILRHQVLNDRDEEVELCSSVECKGIIGNDGRHYILDLLRTFPPDLNFLPVPGEELPEECARAGFPRAHRHKLCCLRQELVDAFVEHRYLLFMKLAALQLMQQNASQLETPSSLENGGPSSLESKSEDPPGQEAGSEEEGSSASGLAKVKELAETIAADDGTDPRSREVIRNACKAVGSISSTAFDIRFNPDIFSPGVRFPESCQDEVRDQKQLLKDAAAFLLSCQIPGLVKDCMEHAVLPVDGATLAEVMRQRGINMRYLGKVLELVLRSPARHQLDHVFKIGIGELITRSAKHIFKTYLQGVELSGLSAAISHFLNCFLSSYPNPVAHLPADELVSKKRNKRRKNRPPGAADNTAWAVMTPQELWKNICQEAKNYFDFDLECETVDQAVETYGLQKITLLREISLKTGIQVLLKEYSFDSRHKPAFTEEDVLNIFPVVKHVNPKASDAFHFFQSGQAKVQQGFLKEGCELINEALNLFNNVYGAMHVETCACLRLLARLHYIMGDYAEALSNQQKAVLMSERVMGTEHPNTIQEYMHLALYCFASSQLSTALSLLYRARYLMLLVFGEDHPEMALLDNNIGLVLHGVMEYDLSLRFLENALAVSTKYHGPKALKVALSHHLVARVYESKAEFRSALQHEKEGYTIYKTQLGEDHEKTKESSEYLKCLTQQAVALQRTMNEIYRNGSSANIPPLKFTAPSMASVLEQLNVINGILFIPLSQKDLENLKAEVARRHQLQEASRNRDRAEEPMATEPAPAGAPGDLGSQPPAAKDPSPSVQG
Consider B1, for which the binding result is listed as “no binding”.
